Source: PubChem BioAssay AID493208 (National Center for Advancing Translational Sciences (NCATS), 2011)
The campaign covered roughly 44,000 compounds. About 340 (0.77%) were called active. Not shown: some 5% with an inconclusive outcome. Calls follow the shape of the dose curve; as a rule, active = well fitted inhibition curve with a large enough effect; inconclusive = small, poorly fitted or top-dose-only effect; inactive = flat fitted curve, though single readings scatter. Some of the results follow.

Assay: Acumen qHTS Assay for Inhibitors of the mTORC1 Signaling Pathway in MEF (Tsc2-/-, p53-/-) Cells: Sytravon;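 also: plate controls were DMSO for no effect and rapamycin for full effect; nearly all actives have a fitted effect of over 50% in size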
Conditions: phospho-rpS6 immunofluorescence/PI, 24 h; series mostly up to 38.3 µM; activity change, negative = inhibition: at the top concentration
Outline: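 Tsc2-/-, p53-/- MEFs (empty-vector stable line) in DMEM + 10% FBS were treated with compounds 24 h at 37 degree Celsius, fixed, and immunostained for phospho-rpS6 (Alexa-488) with propidium iodide counterstain. Laser-scanning cytometry gave % positive cells, normalized against 7.5 nM rapamycin and DMSO.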

Q: With `CCN(CC)S(=O)(=O)c1ccc2c(c1)N(CC(=O)Nc1c(C)cccc1C)C(=O)CO2` as the compound, how does the “activity change, negative = inhibition” value read?
A: Its value is inactive: -8.7%.

Q: Which “activity change, negative = inhibition” value does the source give for `COc1ccc(OC)c(N(CC(=O)NCc2ccccc2)S(=O)(=O)c2ccccc2)c1` here?
A: The value was inactive: 2.61%.

Q: With `COc1ccc(NC(=O)CSc2ncc(-c3ccc(Cl)cc3)[nH]2)cc1OC` as the compound, how does the “activity change, negative = inhibition” value read?
A: The value was inactive: 6.24%.

Q: Which “activity change, negative = inhibition” value does the source give for `CCc1ccc(NCc2cc3cc4c(cc3n(CC(=O)Nc3ccc(Cl)cc3)c2=O)OCO4)cc1` here?
A: Its value is inactive: -11.5%.

Q: For `COc1ccccc1CCNC(=O)c1ccc2c(c1)c(C)c(C)n2C`, which “activity change, negative = inhibition” value is on record?
A: Its value is inactive: -7.01%.

Q: Which “activity change, negative = inhibition” value does the source give for `COC(=O)c1ccc(NC(=O)CC2C(=O)N(c3ccc(Cl)cc3)C(=O)N2Cc2cccs2)cc1` (configuration not stated) here?
A: Its value is inactive: -5.63%.

Q: With `COC(=O)c1cc(NC(=O)CCc2c(C)nc3c4c(C)cc(C)nc4nn3c2C)cc(C(=O)OC)c1` as the compound, how does the “activity change, negative = inhibition” value read?
A: The value was inactive: -5.01%.

Q: Which “activity change, negative = inhibition” value does the source give for `Cc1cc(S(=O)(=O)Nc2cccc(C(=O)O)c2)c(C)c(S(=O)(=O)c2ccccc2)c1` here?
A: Its value is inactive: -17.2%.

Q: Which “activity change, negative = inhibition” value does the source give for `CCOC(=O)c1sc2ccccc2c1S(=O)(=O)Nc1ccc(N(C)C)cc1` here?
A: Its value is inactive: -3.2%.

Q: With `CCOC(=O)c1sc(N2C(=O)c3oc4cc(C)c(C)cc4c(=O)c3C2c2cccc(O)c2)nc1C` (configuration not stated) as the compound, how does the “activity change, negative = inhibition” value read?
A: The value was inactive: -11.4%.

Q: For `COc1ccccc1NC(=O)CCCOc1cc(=O)n(C)c2ccccc12`, which “activity change, negative = inhibition” value is on record?
A: Its value is inactive: -4.8%.

Q: With `CCc1ccccc1NC(=O)c1cc(S(=O)(=O)N(CC)c2ccccc2)ccc1F` as the compound, how does the “activity change, negative = inhibition” value read?
A: The value was inactive: 12.4%.

Q: Which “activity change, negative = inhibition” value does the source give for `CC1CCN(c2nc3c(S(=O)(=O)c4ccccc4)nnn3c3ccsc23)CC1` here?
A: The value was inactive: -14%.

Q: For `COc1ccc(-c2nc(C)c(CCNC(=O)C(=O)Nc3cccc(F)c3)s2)cc1OC`, which “activity change, negative = inhibition” value is on record?
A: Its value is inactive: 3.68%.

Q: With `COc1ccc(CCNC(=O)c2nn(-c3ccc(C)cc3)c(=O)c3c2c2ccccc2n3C)cc1OC` as the compound, how does the “activity change, negative = inhibition” value read?
A: The value was inactive: -3.04%.

Q: With `O=C(CC1N=C2c3ccccc3N=C(SCC(=O)Nc3cccc(C(F)(F)F)c3)N2C1=O)NCc1cccs1` (configuration not stated) as the compound, how does the “activity change, negative = inhibition” value read?
A: The value was inactive: -1.55%.

Q: Which “activity change, negative = inhibition” value does the source give for `CCOC(=O)CCn1nc(-c2ccc(C)cc2)c2ccccc2c1=O` here?
A: Its value is inactive: 15.6%.

Q: With `Cc1ccc(C)c(Cn2c(=O)n(Cc3ccccc3)c(=O)c3c(C)c(C)sc32)c1` as the compound, how does the “activity change, negative = inhibition” value read?
A: Its value is inactive: -14.9%.

Q: With `CCc1ccccc1NC(=O)Nc1nnc(N2CCCC2)s1` as the compound, how does the “activity change, negative = inhibition” value read?
A: The value was inactive: -0.736%.

Q: For `CCc1ccc(CN(Cc2ccco2)C(=O)c2ccccc2Cl)cc1`, which “activity change, negative = inhibition” value is on record?
A: Its value is inactive: -15.4%.

Q: With `Cc1ccc(C(=O)COC(=O)c2cc(-c3ccccc3)nc3ccccc23)cc1C` as the compound, how does the “activity change, negative = inhibition” value read?
A: The value was inactive: 0.529%.

Q: With `COc1cc(NC(=O)Cn2c(=O)n(Cc3ccccc3OC)c(=O)c3cccnc32)cc(OC)c1` as the compound, how does the “activity change, negative = inhibition” value read?
A: Its value is inactive: 1.4%.

Q: With `Cc1ccc(C)c(N2CCN(S(=O)(=O)c3ccc4oc(=O)c5ncn(C)c5c4c3)CC2)c1` as the compound, how does the “activity change, negative = inhibition” value read?
A: Its value is inactive: 0.96%.

Q: For `Cc1ccc(S(=O)(=O)c2nnn3c2nc(NCc2ccc(F)cc2)c2sccc23)cc1`, which “activity change, negative = inhibition” value is on record?
A: Its value is inactive: -7.68%.

Q: Which “activity change, negative = inhibition” value does the source give for `CCCNC(=O)c1ccc2c(c1)N(Cc1cccc(C)c1)C(=O)c1ccccc1S2` here?
A: Its value is inactive: -7.71%.

Q: For `COc1ccc(NC(=O)CCN2CCN(c3cccc(Cl)c3)CC2)cc1`, which “activity change, negative = inhibition” value is on record?
A: The value was inactive: -2.48%.

Q: With `CCN1c2ccccc2-n2cccc2C12CCN(C(=O)Nc1ccccc1C(F)(F)F)CC2` as the compound, how does the “activity change, negative = inhibition” value read?
A: The value was inactive: 11%.

Q: Which “activity change, negative = inhibition” value does the source give for `CCOc1ccc(CNC(=O)Cn2c(=O)c3cccn3c3ccc(F)cc32)cc1` here?
A: Its value is inactive: 0%.

Q: With `CCOc1ccc(OCC)c(NC(=O)C2CCCN(S(=O)(=O)c3ccc4c(c3)oc(=O)n4C)C2)c1` (configuration not stated) as the compound, how does the “activity change, negative = inhibition” value read?
A: Its value is inactive: -2.6%.

Q: With `Cc1cccc(-c2nc(SCCCOc3ccccc3Cl)n3[nH]c(=O)cc3n2)c1` as the compound, how does the “activity change, negative = inhibition” value read?
A: Its value is inactive: 4.92%.

Q: With `O=C(Nc1ccc(F)c(Cl)c1)N1CCN(C(=O)c2nsc3ccccc23)CC1` as the compound, how does the “activity change, negative = inhibition” value read?
A: The value was inactive: 3.25%.

Q: With `Cc1cc(C)cc(-n2c(SCC(=O)N3CCc4ccccc43)nc3c([nH]c4ccccc43)c2=O)c1` as the compound, how does the “activity change, negative = inhibition” value read?
A: Its value is inactive: -0.326%.

Q: Which “activity change, negative = inhibition” value does the source give for `CC(=O)Nc1ccc(Nc2ncnc3c2c(-c2ccccc2)cn3-c2ccccc2)cc1` here?
A: Its value is inactive: -24.1%.

Q: For `CCn1c(C(=O)N2CCC(C(=O)N3CCN(c4cccc(C)c4C)CC3)CC2)cc2sccc21`, which “activity change, negative = inhibition” value is on record?
A: Its value is inactive: -2.57%.

Q: For `O=c1c2cc3c(cc2nc2sc(Nc4ccc(F)cc4F)nn12)OCO3`, which “activity change, negative = inhibition” value is on record?
A: The value was inactive: 0%.

Q: Which “activity change, negative = inhibition” value does the source give for `Cc1ccc(NC(=O)Cn2nnnc2-c2ccccc2N)cc1` here?
A: Its value is inactive: -11.7%.

Q: For `O=C(C1CCCN(S(=O)(=O)c2cccs2)C1)N1CCN(c2cccc(Cl)c2)CC1` (configuration not stated), which “activity change, negative = inhibition” value is on record?
A: The value was inactive: 0.282%.

Q: Which “activity change, negative = inhibition” value does the source give for `Cc1ccc(C)c(N2CCN(c3ncnc4c3nc3n4CCCCC3)CC2)c1` here?
A: Its value is inactive: 0.966%.

Q: For `Cn1c(=O)c2nc(SCC(=O)Nc3cc(Cl)ccc3Cl)n(C)c2n(C)c1=O`, which “activity change, negative = inhibition” value is on record?
A: Its value is inactive: -1.02%.

Q: For `NC(=O)CSc1nc2c(oc3ccccc32)c(=O)n1-c1ccccc1F`, which “activity change, negative = inhibition” value is on record?
A: The value was inactive: -7.1%.

Q: For `COc1ccc(Cl)cc1NC(=O)N1CCC(CN2CCc3ccccc3C2)CC1`, which “activity change, negative = inhibition” value is on record?
A: Its value is inactive: 3.28%.

Q: For `CCOc1ccc(C(=O)NCC(c2ccco2)S(=O)(=O)c2ccc(C)cc2)cc1` (configuration not stated), which “activity change, negative = inhibition” value is on record?
A: The value was inactive: -14.9%.

Q: For `COc1cccc(CNC(=O)CSc2ccc(-c3sc(-c4ccccc4)nc3C)nn2)c1`, which “activity change, negative = inhibition” value is on record?
A: The value was inactive: -17.1%.

Q: For `CCc1ccc(-n2nc3cc(C)c(NC(=O)c4cc(Cl)ccc4OC)cc3n2)cc1`, which “activity change, negative = inhibition” value is on record?
A: The value was inactive: -0.94%.

Q: For `Cc1ccc(NC(=O)c2ccc(NC(=O)N3CCSc4ncccc43)cc2)cc1Cl`, which “activity change, negative = inhibition” value is on record?
A: The value was inactive: -2.79%.

Q: Which “activity change, negative = inhibition” value does the source give for `O=C(Cn1cc(S(=O)(=O)Cc2ccc(F)cc2)c2ccccc21)NCCc1ccccc1` here?
A: Its value is inactive: -1.68%.

Q: With `Cc1ccc2c(=O)cc(C(=O)Nc3sc4c(c3C(=O)NCc3ccco3)CCC4)oc2c1C` as the compound, how does the “activity change, negative = inhibition” value read?
A: The value was inactive: 1.57%.
